Measurements as given in patent US20250214977A1, “STAT6 INHIBITORS AND USES THEREOF” (Kymera Therapeutics, Inc., priority 2024, published 2025).

Target: T1, biotinylated truncated STAT6 (123-632)-avi (Homo sapiens, UniProt P42226)
T1 sequence (P42226 123-632 limits assumed): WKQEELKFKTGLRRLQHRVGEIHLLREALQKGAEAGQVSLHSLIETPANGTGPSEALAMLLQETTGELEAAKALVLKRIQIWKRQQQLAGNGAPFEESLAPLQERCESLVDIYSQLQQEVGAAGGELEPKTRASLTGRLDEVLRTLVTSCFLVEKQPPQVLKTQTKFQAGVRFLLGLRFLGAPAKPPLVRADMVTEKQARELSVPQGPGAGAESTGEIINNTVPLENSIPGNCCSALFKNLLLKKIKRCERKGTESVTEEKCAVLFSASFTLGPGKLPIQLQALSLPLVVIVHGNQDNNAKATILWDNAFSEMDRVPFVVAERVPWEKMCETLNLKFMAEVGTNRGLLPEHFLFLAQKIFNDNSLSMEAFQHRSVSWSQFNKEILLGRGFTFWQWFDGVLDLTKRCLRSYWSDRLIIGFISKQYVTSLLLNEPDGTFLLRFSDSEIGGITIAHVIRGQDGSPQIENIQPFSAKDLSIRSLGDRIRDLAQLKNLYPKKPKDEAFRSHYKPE
Assay: Homogenous Time-Resolved Fluorescence (HTRF) binding assay
Settings: 0.15 nM biotinylated truncated STAT6 (123-632)-avi, 20 nM fluorescein-labeled probe

SMILES | IC50 (30 minutes at room temperature) | IC50 (30 minutes room temperature)
COc1cc(F)cnc1N1CCN(C(=O)c2cc3c(/C=C/C4CCCCC4)cc(C4=CCCN(C(=O)CCn5ccnn5)C4)c(F)c3[nH]2)CC1 [Example I-1163] | 100 to 1000 nM | 
COC(=O)CC(=O)N1CCC=C(c2cc3cc(C(=O)N4Cc5cnn(C)c5C4)cc(-c4cccnc4OC)c3n2CC2CC2)C1 [Example I-795] | > 100000 nM | 
CN(C)C(=O)c1cc2cc(C3=CCCN(C(=O)Cn4nnc5ccccc54)C3)ccc2o1 [Example I-254] | 10000 to 100000 nM | 
COc1cc(F)cnc1N1CCN(C(=O)c2cc3c(-c4cncc(OC(F)F)c4)cc(C4=CCCN(C(=O)CCn5ccnn5)C4)c(F)c3[nH]2)CC1 [Example I-651] | < 100 nM | 
CCc1ccc(OC)c(N2CCN(C(=O)c3cc4c(-c5cnccc5OC)cc(C5=CCCN(C(=O)CCn6ccnn6)C5)c(F)c4[nH]3)CC2)n1 [Example I-466] | < 100 nM | 
COc1ccccc1-c1cc(C2=CCCN(C(=O)CCn3ccnn3)C2)c(F)c2[nH]c(C(=O)N3CCN(c4nc(C)nc5c4oc4ccccc45)CC3)cc12 [Example I-1451] |  | < 100 nM
CCc1nc(C)ccc1-c1cc(C(=O)N2CCN(c3ncc(F)cc3OC)CC2)cc2c(F)c(C3=CCCN(C(C)=O)C3)n(CC3CC3)c12 [Example I-1217] | < 100 nM | 
CNc1ccc(-c2cc([C@H]3CCCN(C(=O)CCn4ccnn4)C3)cc3[nH]c(C(=O)N(C)C)cc23)c(OC)c1 (single isomer, unassigned) [Example I-1194] | < 100 nM | 
COc1c(F)cc(F)cc1-c1cc(C2=CCCN(C(=O)CCn3ccnn3)C2)c(F)c2[nH]c(C(=O)N3CCN(C4CC4)CC3)cc12 [Example I-603] | < 100 nM | 
CCc1ccncc1-c1cc(C2=CCCN(C(=O)CCn3cccn3)C2)c(F)c2[nH]c(C(=O)N3CCN(c4ncc(OC)cc4OC)CC3)cc12 [Example I-683] | < 100 nM | 
COc1cccc(-c2cc(C3=CCCN(C(=O)CCn4ccnn4)C3)c(F)c3[nH]c(C(=O)N(C)C)cc23)c1 [Example I-1642] |  | < 100 nM
COc1ccccc1-c1cc(C2CCCN(C(=O)CCn3ccnn3)C2)c(F)c2[nH]c(C(=O)N3CCN(c4ncccc4OC)CC3)cc12 (stereo not shown) [Example I-348] | < 100 nM | 
COc1ccccc1-c1cc(C2=CCCN(C(=O)CCn3ccnn3)C2)c(F)c2[nH]c(C(=O)N3CCN(c4ncn5c4CCCC5)CC3)cc12 [Example I-1034] | < 100 nM | 
COc1ccccc1-c1cc(C2=CCCN(C(=O)CCn3ccnn3)C2)c(F)c2[nH]c(C(=O)NC3CC(=O)N(C)C3)cc12 (stereo not shown) [Example I-1377] |  | 100 to 1000 nM
COc1cc(F)cnc1N1CCN(C(=O)c2cc3c(/C=C/CCl)cc(C4=CCCN(C(=O)CCn5ccnn5)C4)c(F)c3[nH]2)CC1 [Example I-1162] | 1000 to 10000 nM | 
COc1ccccc1-c1cc(C2=CCCN(C(=O)CCn3ccnn3)C2)c(F)c2[nH]c(C(=O)N3CCN(c4cc(C)cc5c[nH]nc45)CC3)cc12 [Example I-921] | 100 to 1000 nM | 
CN(C)C(=O)c1cc2cc(C3=CCCN(C(=O)CCn4ccnn4)C3)cc(-c3ccccc3)c2o1 [Example I-1675] |  | < 100 nM
CCN(Cc1ccccc1O)C(=O)c1cc2c(-c3ccccc3OC)cc(C3=CCCN(C(=O)CCn4ccnn4)C3)c(F)c2[nH]1 [Example I-1399] |  | 100 to 1000 nM
COc1ccccc1-c1cc(C2=CCCN(C(=O)CCn3ccnn3)C2)c(F)c2[nH]c(C(=O)N3CCN(C4CC(F)(F)C4)CC3)cc12 [Example I-501] | 10000 to 100000 nM | 
COc1ccccc1-c1cc(C2=CCCN(C(=O)CCn3ccnn3)C2)c(F)c2[nH]c(C(=O)N3CCN(Cc4nccs4)CC3)cc12 [Example I-1418] |  | < 100 nM
COc1ccccc1-c1cc(C2=CCCN(C(=O)CCn3ccnn3)C2)c(F)c2[nH]c(C(=O)N3CCN(CCS(C)(=O)=O)CC3)cc12 [Example I-1349] |  | 100 to 1000 nM
COc1ccccc1-c1cc(C2=CCCN(C(=O)CCn3ccnn3)C2)c(F)c2[nH]c(C(=O)N(C)c3nccc(CO)n3)cc12 [Example I-1386] |  | < 100 nM

SMILES | IC50 (30 minutes at room temperature) | IC50 (30 minutes room temperature)
O=C(O)c1cc2cc(C3=CCCN(C(=O)CCn4ccnn4)C3)ccc2o1 [Example I-1263] |  | 10000 to 100000 nM
COc1cc(F)ccc1-c1cc(C2=CCCN(C(=O)CCn3ccnn3)C2)c(F)c2[nH]c(C(=O)N3CCN(c4ncc(F)cc4OC)CC3)cc12 [Example I-613] | < 100 nM | 
COc1cc(F)cnc1N1CCN(C(=O)c2cc3c(-c4cccc(-c5ccncc5)c4)cc(C4=CCCN(C(=O)CCn5ccnn5)C4)c(F)c3[nH]2)CC1 [Example I-626] | < 100 nM | 
COc1cc(F)cnc1N1CCN(C(=O)c2cc3c(-c4ccc(C(=O)N(C)C)cc4)cc(C4=CCCN(C(=O)CCn5ccnn5)C4)c(F)c3[nH]2)CC1 [Example I-1165] | < 100 nM | 
COc1ccccc1-c1cc(C2=CCCN(C(=O)CCn3ccnn3)C2)c(F)c2[nH]c(C(=O)N3CCC[C@H]3c3cccc(Br)c3)cc12 [Example I-1537] |  | 1000 to 10000 nM
COc1ccccc1-c1cc(C2=CCCN(C(=O)CCn3ccnn3)C2)c(F)c2[nH]c(C(=O)N3CCN(Cc4noc(C)n4)CC3)cc12 [Example I-1201] | < 100 nM | 
COc1cnccc1-c1cc(C2=CCCN(C(C)=O)C2)c(F)c2sc(C(=O)N(C)C)cc12 [Example I-554] | 100 to 1000 nM | 
COc1ccccc1-c1cc(C2=CCCN(C(=O)CCn3ccnn3)C2)c(F)c2[nH]c(C(=O)N3CCN(Cc4ccccc4)CC3)cc12 [Example I-1202] | < 100 nM | 
COc1cccnc1N1CCN(C(=O)c2cc3c(-c4cccc(F)c4OC)cc(C4=CCCN(C(=O)CCn5ccnn5)C4)c(F)c3[nH]2)C(C)C1 (stereo not shown) [Example I-973] | 100 to 1000 nM | 
CCC1=C(c2cc(C3=CCCN(C(=O)CCn4ccnn4)C3)c(F)c3[nH]c(C(=O)N4CCN(c5ncc(F)cc5OC)CC4)cc23)CCNC1 [Example I-731] | < 100 nM | 
COc1ccccc1-c1cc(C2=CCCN(C(=O)CCn3ccnn3)C2)c(F)c2[nH]c(C(=O)N3CCN(Cc4ccncc4)CC3)cc12 [Example I-858] | < 100 nM | 
CN(C)C(=O)c1cc2ncc(C3=CCCN(C(=O)CCn4ccnn4)C3)cc2[nH]1 [Example I-194] | 1000 to 10000 nM | 
CN(C)C(=O)c1cc2ccc(C3=CCCN(C(=O)CCn4nncc4CO)C3)cc2[nH]1 [Example I-13] | 10000 to 100000 nM | 
COc1ccccc1-c1cc(C2=CCCN(C(=O)CCn3ccnn3)C2)c(F)c2[nH]c(C(=O)N3CCCC3CO)cc12 (stereo not shown) [Example I-1615] |  | 100 to 1000 nM
O=C(CCn1ccnn1)N1CCC=C(c2cc(-c3ccccc3)c3cc(C(=O)N4CCN(c5ncccc5OC5CC5)CC4)[nH]c3c2F)C1 [Example I-938] | < 100 nM | 
COc1cccc(N2CCN(C(=O)c3cc4c(-c5ccc(N(C)C)cc5OC)cc(C5=CCCN(C(=O)CCn6ccnn6)C5)c(F)c4[nH]3)CC2)n1 [Example I-1109] | < 100 nM | 
CCc1nc(C)ccc1-c1cc(C(=O)N2CCN(c3ncc(F)cc3OC)CC2)cc2cc(C3=CCCN(C(=O)CCC(=O)O)C3)n(CC3CC3)c12 [Example I-527] | < 100 nM | 
O=C(NCCO)c1cc2cc(C3=CCCN(C(=O)CCn4ccnn4)C3)ccc2o1 [Example I-307] | 10000 to 100000 nM | 
COc1ccccc1-c1cc(C2=CCCN(C(=O)CCn3ccnn3)C2)c(F)c2[nH]c(C(=O)N3CCN(c4ccc(C(F)(F)F)cc4F)CC3)cc12 [Example I-932] | 100 to 1000 nM | 
CNc1ccc(-c2cc(C3=CCCN(C(=O)CCn4ccnn4)C3)cc3[nH]c(C(=O)N(C)C)cc23)c(C)c1 [Example I-1053] | < 100 nM | 
COc1ccccc1-c1cc(C2=CCCN(C(=O)CCn3ccnn3)C2)c(F)c2[nH]c(C(=O)N3CCN(c4ccn5cnnc5c4)CC3)cc12 [Example I-1400] |  | < 100 nM
